Residue numbers refer to the chain shown, from its start. The list shows a part of the results.
B1: GAUCACG (DNA:RNA)
RNA: GGGAGACCGGAAUUCAGAUUGUCCGAUCACGUUAAAUCCCGUCGUAGCCACCA
DNA 1: CAATCTGAATTCCGGTCTCCC
DNA 2: TGGTGGCTACGACGGGATT
B2: CCAAUGC (DNA:RNA)
RNA: GGGAGACCGGAAUUCAGAUUGUCCCCAAUGCUUAAAUCCCGUCGUAGCCACCA
DNA 1: CAATCTGAATTCCGGTCTCCC
DNA 2: TGGTGGCTACGACGGGATT
B3: UUUUGGC (DNA:RNA)
RNA: B2 RNA with C25U, C26U, A27U, A28U, U29G
DNA 1: CAATCTGAATTCCGGTCTCCC
DNA 2: TGGTGGCTACGACGGGATT
B4: GGUUCGC (DNA:RNA)
RNA: B2 RNA with C25G, C26G, A27U, A28U, U29C
DNA 1: CAATCTGAATTCCGGTCTCCC
DNA 2: TGGTGGCTACGACGGGATT
B5: ACUGUGG (DNA:RNA)
RNA: B2 RNA with C25A, A27U, A28G, C31G
DNA 1: CAATCTGAATTCCGGTCTCCC
DNA 2: TGGTGGCTACGACGGGATT
B6: GCGUGUA (DNA:RNA)
RNA: B2 RNA with C25G, A27G, A28U, U29G, G30U, C31A
DNA 1: CAATCTGAATTCCGGTCTCCC
DNA 2: TGGTGGCTACGACGGGATT
B7: UUCGCAA (DNA:RNA)
RNA: GGGAGACCGGAAUUCAGAUUGUCCUUCGCAAUUAAAUCCCGUCGUAGCCACCA
DNA 1: CAATCTGAATTCCGGTCTCCC
DNA 2: TGGTGGCTACGACGGGATT
B8: UGUUGCU (DNA:RNA)
RNA: B1 RNA with G25U, A26G, C28U, A29G, G31U
DNA 1: CAATCTGAATTCCGGTCTCCC
DNA 2: TGGTGGCTACGACGGGATT
B9: UCCCGUA (DNA:RNA)
RNA: B7 RNA with U26C, G28C, C29G, A30U
DNA 1: CAATCTGAATTCCGGTCTCCC
DNA 2: TGGTGGCTACGACGGGATT
B10: CUUGAAU (DNA:RNA)
RNA: B7 RNA with U25C, C27U, C29A, A31U
DNA 1: CAATCTGAATTCCGGTCTCCC
DNA 2: TGGTGGCTACGACGGGATT
B11: AGCUACC (DNA:RNA)
RNA: B1 RNA with G25A, A26G, U27C, C28U, G31C
DNA 1: CAATCTGAATTCCGGTCTCCC
DNA 2: TGGTGGCTACGACGGGATT
B12: GUUUAUG (DNA:RNA)
RNA: B1 RNA with A26U, C28U, C30U
DNA 1: CAATCTGAATTCCGGTCTCCC
DNA 2: TGGTGGCTACGACGGGATT
B13: AUUGAAA (DNA:RNA)
RNA: B7 RNA with U25A, C27U, C29A
DNA 1: CAATCTGAATTCCGGTCTCCC
DNA 2: TGGTGGCTACGACGGGATT
B14: AUAAAUC (DNA:RNA)
RNA: B2 RNA with C25A, C26U, U29A, G30U
DNA 1: CAATCTGAATTCCGGTCTCCC
DNA 2: TGGTGGCTACGACGGGATT
B15: GUCCGCA (DNA:RNA)
RNA: B1 RNA with A26U, U27C, A29G, G31A
DNA 1: CAATCTGAATTCCGGTCTCCC
DNA 2: TGGTGGCTACGACGGGATT
B16: UAAAUGU (DNA:RNA)
RNA: B2 RNA with C25U, C26A, C31U
DNA 1: CAATCTGAATTCCGGTCTCCC
DNA 2: TGGTGGCTACGACGGGATT
B17: GUCCGGC (DNA:RNA)
RNA: B2 RNA with C25G, C26U, A27C, A28C, U29G
DNA 1: CAATCTGAATTCCGGTCTCCC
DNA 2: TGGTGGCTACGACGGGATT
B18: ACCAAGC (DNA:RNA)
RNA: B2 RNA with C25A, A27C, U29A
DNA 1: CAATCTGAATTCCGGTCTCCC
DNA 2: TGGTGGCTACGACGGGATT
B19: ACGGGAU (DNA:RNA)
RNA: B7 RNA with U25A, U26C, C27G, C29G, A31U
DNA 1: CAATCTGAATTCCGGTCTCCC
DNA 2: TGGTGGCTACGACGGGATT
B20: CAAAGGU (DNA:RNA)
RNA: B2 RNA with C26A, U29G, C31U
DNA 1: CAATCTGAATTCCGGTCTCCC
DNA 2: TGGTGGCTACGACGGGATT

Each binder was assayed against T1, RBFOX1 RRM (Homo sapiens, UniProt Q9NWB1 109-208) (assay: EMSA; HiTS-Eq, 1 nM pool, 10 min; buffer printed only for the single-RNA assays: 10 mM Tris pH 7.5, 150 mM NaCl, 3.4 mM EDTA, 0.001% NP-40, 30 C). Conditions: tags: His6 N-terminal (pET28a); label: 5' 32P.
T1 sequence: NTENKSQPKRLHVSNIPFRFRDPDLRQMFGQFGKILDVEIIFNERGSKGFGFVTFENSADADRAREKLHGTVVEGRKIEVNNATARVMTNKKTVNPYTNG
Method in brief: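 Purified wild-type or mutant RbFox RRM at increasing concentrations was equilibrated with 1 nM of 5′-radiolabelled RNA carrying 7 randomized nucleotides for 10 min in 50 µL. Unbound RNA was separated by 8% native PAGE and sequenced. Relative association constants came from read-count changes of each RNA species compared with the control reaction, normalised to the cognate motif.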

First: B1
Second: B2
The binding signal of the first is higher: 0.00958 KA relative to UGCAUGU for the first, 0.00439 KA relative to UGCAUGU for the second.

First: B3
Second: B4
The binding signal of the first is lower: 0.0137 KA relative to UGCAUGU for the first, 0.0222 KA relative to UGCAUGU for the second.

First: B5
Second: B6
The binding signal of the first is lower: 0.0129 KA relative to UGCAUGU for the first, 0.017 KA relative to UGCAUGU for the second.

Compared with B7, B8 is higher in binding signal: 0.00695 KA relative to UGCAUGU for the first, 0.0219 KA relative to UGCAUGU for the second.

Compared with B9, B10 is higher in binding signal: 0.00196 KA relative to UGCAUGU for the first, 0.0126 KA relative to UGCAUGU for the second.

First: B11
Second: B12
The binding signal of the first is lower: 0.00988 KA relative to UGCAUGU for the first, 0.0118 KA relative to UGCAUGU for the second.

Compared with B13, B14 is lower in binding signal: 0.00387 KA relative to UGCAUGU for the first, 0.000191 KA relative to UGCAUGU for the second.

First: B15
Second: B16
The binding signal of the first is higher: 0.0155 KA relative to UGCAUGU for the first, 0.0123 KA relative to UGCAUGU for the second.

First: B17
Second: B18
The binding signal of the first is higher: 0.00575 KA relative to UGCAUGU for the first, 0.00138 KA relative to UGCAUGU for the second.

Compared with B19, B20 is lower in binding signal: 0.0307 KA relative to UGCAUGU for the first, 0.00342 KA relative to UGCAUGU for the second.

Reference: PMC9911399, “Two distinct binding modes provide the RNA-binding protein RbFox with extraordinary sequence specificity”
